The whole screen tested about 310,000 compounds, of which about 18,000 (5.8%) were called active. Inconclusive means that the source gave no clear call. Such entries were picked first, then a sample of the others. The call rests on the fitted dose curve; in most records, active means well fitted inhibition curve with a large enough effect; inconclusive means small, poorly fitted or top-dose-only effect, or another doubt; inactive means no such curve, though single readings can be large or run the other way. Potencies of inconclusive entries are left out as doubtful fits.
Test: Primary qHTS for delayed death inhibitors of the malarial parasite plastid, 48 hour incubation
Settings: P. falciparum luciferase growth in erythrocytes; series mostly up to 28.7 µM; activity change, negative = inhibition: at the top concentration
In short: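 Firefly luciferase activity from engineered P. falciparum reports growth; inhibitors lower the luminescent signal. Cultures contained 2% hematocrit erythrocytes at 0.1% final parasitemia.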
On the % scale 0 is the no-effect control and ±100 the full control effect; potency means the concentration at half of the fitted maximal effect; tags describe the fitted curve by direction and shape.

Structure (SMILES) | activity change, negative = inhibition | Potency
Clc1ccc(N=c2ssnc2Cl)cc1 | inactive: -5.65% | 
COc1ccc(CN(C)CC(O)COc2ccc(C(=O)c3ccccc3)cc2)c(OC)c1OC (stereo not drawn) |  | inconclusive [inhibitor, single point]
O=C(c1cccnc1NCc1ccccc1)N1CCOCC1 | inactive: 6.15% | 
CC1(C)C(c2ccco2)=[N+]([O-])C2(CCCCC2=O)N1O (stereo not drawn) | inactive: -14.5% | 
Cc1ccc(-n2c(SCC(=O)N(C)C3CCS(=O)(=O)C3)nc3ccccc3c2=O)cc1 (stereo not drawn) | inactive: -5.27% | 
COc1ccc(-c2nnc(C3CCN(S(=O)(=O)c4ccccc4)CC3)o2)cc1 |  | inconclusive [inhibitor, single point]
O=C(NCCC1CCCCN1S(=O)(=O)c1ccc(Cl)cc1)C(=O)NCc1ccco1 (stereo not drawn) |  | inconclusive [inhibitor, partial curve, poor fit]
CC(=O)Nc1ccc(S(=O)(=O)NCC2CCC(C(=O)N3CCCCCC3)CC2)cc1 (stereo not drawn) |  | inconclusive [inhibitor, partial curve, poor fit]
CCOC(=O)c1cnn(-c2nc(-c3ccccc3)cs2)c1C(F)(F)F | inactive: 35% | 
Cc1ccc(OCC(=O)NNC(=S)NC(=O)C(C)(C)C)c(Br)c1 |  | inconclusive [inhibitor, partial curve, poor fit]
COc1ccc(OCC(=O)Nc2ccccc2N2CCCCC2)cc1 |  | inconclusive [inhibitor, partial curve]
Cc1ccc(NC(=O)COC(=O)CCC(=O)c2cccs2)c(Br)c1 | inactive: 2.59% | 
O=C(OCC(=O)N1CCN(C(=O)COC(=O)c2ccc(O)cc2O)CC1)c1ccc(O)cc1O |  | inconclusive [inhibitor, single point]
COc1ccc(CNC(=O)CN=C2NC(=O)C(c3ccccc3)(c3ccccc3)N2)cc1 | inactive: 10.2% | 
C/C(=N\NC(=O)C1(C)CC1(Br)Br)c1ccc([N+](=O)[O-])cc1 (stereo not drawn) |  | inconclusive [inhibitor, single point]
CCN1CCN(S(=O)(=O)c2ccc(Cl)c(C(=O)N(C)CCOc3ccc(Cl)cc3)c2)CC1 |  | inconclusive [inhibitor, single point]
Nc1cccc(-c2cc(-c3ccccc3)nc(-c3cccc(N)c3)n2)c1 |  | active: 10.4 µM
Cc1ccc(S(=O)(=O)N(C)C)cc1NC(=S)Nc1cccc2ccccc12 |  | inconclusive [inhibitor, single point]
CSc1nc(/C=C2\C=Nc3ccccc32)c(O)n1C |  | inconclusive [inhibitor, single point]
CC1Cc2ccccc2N1C(=O)CN1CCN(S(=O)(=O)c2cccs2)CC1 (stereo not drawn) |  | inconclusive [inhibitor, single point]
CCN1CCN(c2nc(Nc3cccc(F)c3)nc(N)c2[N+](=O)[O-])CC1 |  | active: 13.1 µM
CCOC(=O)c1ccc(CC(=O)c2ccc(O)c(O)c2O)o1 |  | inconclusive [inhibitor, single point]
CCn1c(C)cc(C(=O)CSc2nnc(-c3ccco3)o2)c1C | inactive: 34% | 

Structure (SMILES) | activity change, negative = inhibition | Potency
CSCC[C@H](NC(=O)C1=NN(c2c(F)c(F)cc(F)c2F)C(=O)CC1)c1nc2ccccc2[nH]1 |  | inconclusive [inhibitor, single point]
Cc1c(C(=O)NCCCN2CCOCC2)sc2ncnc(N3CCN(c4ccccc4)CC3)c12 |  | inconclusive [inhibitor, partial curve, poor fit]
CC(=O)N1CCc2cc(S(=O)(=O)NC(CC(C)C)C(=O)Nc3cc(C(=O)O)ccc3C)ccc21 (stereo not drawn) | inactive: 1.53% | 
O=C(Cn1cnc2ccccc2c1=O)N1CCN(S(=O)(=O)c2ccc(F)cc2)CC1 |  | inconclusive [inhibitor, single point]
CCCCn1c(N)c(N(CCC(C)C)C(=O)c2ccc3c(c2)OCCO3)c(=O)[nH]c1=O |  | inconclusive [inhibitor, single point]
COc1ccc(/C(N)=N/OC(=O)N2CCOCC2)cc1 |  | inconclusive [inhibitor, partial curve]
CCCCCc1cccnc1 |  | inconclusive [inhibitor, single point]
Cc1ccsc1C(=O)Nc1ccccc1N1CCCC1 |  | inconclusive [inhibitor, single point]
O=C(Nc1ccc(N2CCCCCC2)cc1)c1cccc(S(=O)(=O)N2CCOCC2)c1 |  | active: 13.1 µM
Clc1ccc(C(Cn2ccnc2)OCc2ccsc2Cl)c(Cl)c1 (stereo not drawn) |  | active: 4.26 µM
Cc1ccc(-n2c(SCC(=O)Nc3nccs3)nc3c(c2=O)SCC3)cc1 |  | inconclusive [inhibitor, partial curve, poor fit]
CCCc1nc2c(ccc3ccccc32)cc1CC | inactive: -3.79% | 
Cc1ccc(Cn2c(N3CCNCC3)nc3c2c(=O)[nH]c(=O)n3C)cc1 |  | inconclusive [inhibitor, full curve, poor fit]
CCC(CC)NC(=O)C1CCN(c2ccc(S(=O)(=O)N3CCOCC3)cc2[N+](=O)[O-])CC1 |  | inconclusive [inhibitor, single point]
CCOc1ccccc1OCC(=O)Nc1cccc(S(=O)(=O)NC2=NCCCCC2)c1 |  | inconclusive [inhibitor, partial curve, poor fit]
O=C(N/N=C\c1ccc([N+](=O)[O-])o1)C1COc2ccccc2O1 (stereo not drawn) |  | inconclusive [inhibitor, partial curve, poor fit]
CCOC(=O)N1CCC(NC(=O)c2cc(-c3ccc(OC)cc3)nc3ccccc23)CC1 |  | inconclusive [inhibitor, partial curve, poor fit]
CCc1ccccc1OCCCCCNCCO |  | inconclusive [inhibitor, single point]
CC(=O)Nc1ccc(Nc2nc(-c3cc4ccccc4oc3=O)cs2)cc1 | inactive: 115% | 
Nc1cccc2c(=O)c3ccccc3[nH]c12 |  | active: 1.85 µM
O=C(CNC(=S)N(Cc1ccccc1F)C1CCCCC1)NCCN1CCOCC1 | inactive: -2.94% | 
COc1ccccc1OCCn1cc(/C=N/NC(=O)c2ccncc2)c2ccccc21 | inactive: -12.4% | 
Cc1cc(NC(=O)C(C)SCC(=O)Nc2nc3c(F)cc(F)cc3s2)no1 (stereo not drawn) |  | inconclusive [inhibitor, single point]

Structure (SMILES) | activity change, negative = inhibition | Potency
Cc1ccc(-c2nn(-c3ccccc3)cc2C(=O)N2CCN(C3CCS(=O)(=O)C3)CC2)cc1 (stereo not drawn) | inactive: -7.64% | 
Cc1ccc(C)c(S(=O)(=O)N2CCN(C(=O)c3ccc(-n4cncn4)c([N+](=O)[O-])c3)CC2)c1 |  | inconclusive [inhibitor, partial curve, poor fit]
C[N+]1(CC#CC(O)(c2ccccc2)c2ccccc2)CCCC1 |  | inconclusive [inhibitor, partial curve]
O=C1CC(N2CCN(Cc3ccc4c(c3)OCO4)CC2)C(=O)N1Cc1ccc(N2CCCC2=O)cc1 (stereo not drawn) |  | inconclusive [inhibitor, partial curve, poor fit]
Cc1ccccc1CN1CCCC(C(=O)Nc2ccccc2Oc2cccnc2)C1 (stereo not drawn) |  | active: 2.62 µM
Cc1csc(CNc2ncnc3ccc(-c4ccc5c(c4)OCCO5)cc23)c1 |  | active: 11.7 µM
CCC(c1nnc(SCC(=O)N2CC(=O)Nc3ccccc32)n1Cc1ccccc1)N(C)C (stereo not drawn) |  | inconclusive [inhibitor, partial curve, poor fit]
COc1ccc2c(=O)c(N3C(=O)c4ccccc4C3=O)coc2c1 | inactive: 52.3% | 
Cc1ccc(NC(=O)C2CCC(CNc3c(N4CCC(C)CC4)c(=O)c3=O)CC2)cc1F (stereo not drawn) |  | inconclusive [inhibitor, partial curve]
CN1CCN(C(=S)c2cn(Cc3ccc(F)cc3)c3ccccc23)CC1 |  | inconclusive [inhibitor, partial curve, poor fit]
CCc1cccc(CC)c1C(O)c1cccnc1 (stereo not drawn) |  | inconclusive [inhibitor, single point]
CCN(CC)C(=O)c1ccc(NC(=O)C2=C(C)OCCS2)cc1 | inactive: 29.6% | 
CC(C)(C)c1nc(SCC(=O)Nc2ccc3c(c2)OCCO3)c2ccccc2n1 |  | inconclusive [inhibitor, partial curve]
CN(C)CCOC(=O)[C@@H](c1ccccc1)C1(O)CCCC1 | inactive: 36.4% | 
Cc1cccc(-n2c(SCC(=O)Nc3cccc(S(=O)(=O)NC4=NCCCCC4)c3)nc3ccccc3c2=O)c1C |  | active: 13.1 µM
CC(C)CC(NC(=O)OC(C)(C)C)C(=O)NCc1ccccc1 (stereo not drawn) |  | inconclusive [inhibitor, partial curve, poor fit]
Cc1ccc(S(=O)(=O)NCC(C)NS(=O)(=O)c2ccc(C)cc2)cc1 (stereo not drawn) | inactive: 4.09% | 
Cc1ccc(NC(=O)N(C)c2ccccc2)cc1 | inactive: 4.52% [at 0.00184 µM] | 
O=C(COc1ccc(Cl)cc1Cl)NNC(=O)c1cccnc1 |  | inconclusive [inhibitor, partial curve, poor fit]
Cc1cc(C)c(S(=O)(=O)c2ccccc2C(=O)O)c(C)c1 | inactive: 6.7% | 
CC(Oc1ccc(F)cc1)C(=O)N(CCC1=CCCCC1)c1c(N)n(Cc2ccccc2)c(=O)[nH]c1=O (stereo not drawn) |  | inconclusive [inhibitor, partial curve, poor fit]
CC(SCC(=O)Nc1ccc(F)cc1)c1nc2ccccc2c(=O)[nH]1 (stereo not drawn) |  | inconclusive [inhibitor, partial curve, poor fit]

Source: PubChem BioAssay AID504832 (National Center for Advancing Translational Sciences (NCATS), 2011)
